# Source: publication PMC4336329 (PLoS ONE, 2015)
# Out of some 310,000 compounds screened, about 2,200 (0.71%) showed an effect of 50% or more. Effects have a minus sign here. The list shows a part of the results.
# Biological target: human ether-à-go-go-related gene (hERG) potassium channel (human, UniProt Q12809)
# Assay: primary screen, population patch clamp on CHO cells stably expressing hERG
# Sequence of human ether-à-go-go-related gene (hERG) potassium channel (Q12809 whole entry, looked up): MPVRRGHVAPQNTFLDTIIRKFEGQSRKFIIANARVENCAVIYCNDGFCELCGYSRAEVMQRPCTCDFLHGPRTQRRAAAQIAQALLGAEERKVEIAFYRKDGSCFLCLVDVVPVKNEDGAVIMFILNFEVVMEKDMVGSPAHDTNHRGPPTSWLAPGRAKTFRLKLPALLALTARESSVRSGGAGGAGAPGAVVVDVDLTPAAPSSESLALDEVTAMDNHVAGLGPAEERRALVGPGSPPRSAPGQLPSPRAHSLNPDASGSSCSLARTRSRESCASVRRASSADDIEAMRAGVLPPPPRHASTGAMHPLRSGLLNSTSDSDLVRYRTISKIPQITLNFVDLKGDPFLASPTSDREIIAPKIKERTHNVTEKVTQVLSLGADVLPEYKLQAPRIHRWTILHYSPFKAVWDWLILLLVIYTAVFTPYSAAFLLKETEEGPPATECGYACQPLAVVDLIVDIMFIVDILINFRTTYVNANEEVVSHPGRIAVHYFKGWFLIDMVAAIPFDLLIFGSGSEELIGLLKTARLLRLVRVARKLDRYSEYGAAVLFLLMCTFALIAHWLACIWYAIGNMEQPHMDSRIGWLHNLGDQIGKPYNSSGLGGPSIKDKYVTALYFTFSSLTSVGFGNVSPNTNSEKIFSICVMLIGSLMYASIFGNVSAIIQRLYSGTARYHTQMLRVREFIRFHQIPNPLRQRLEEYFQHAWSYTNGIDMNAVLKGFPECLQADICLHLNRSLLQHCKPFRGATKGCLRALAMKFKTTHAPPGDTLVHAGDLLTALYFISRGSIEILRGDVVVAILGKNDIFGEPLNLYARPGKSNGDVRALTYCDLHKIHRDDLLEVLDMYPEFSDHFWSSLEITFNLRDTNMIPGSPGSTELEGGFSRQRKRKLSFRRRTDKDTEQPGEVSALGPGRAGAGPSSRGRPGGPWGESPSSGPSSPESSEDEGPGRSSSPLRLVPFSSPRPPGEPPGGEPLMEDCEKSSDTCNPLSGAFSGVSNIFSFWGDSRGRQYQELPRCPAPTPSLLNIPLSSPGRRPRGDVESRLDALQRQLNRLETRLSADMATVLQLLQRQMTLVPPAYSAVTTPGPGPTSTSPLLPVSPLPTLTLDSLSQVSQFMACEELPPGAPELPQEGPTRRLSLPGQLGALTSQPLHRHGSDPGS
row,Structure (SMILES),"hERG current change (%, negative = inhibition) at 1uM [%]"
1,CC(C)CNC(=S)N(CCCN(C)C)Cc1cc2cc3c(cc2[nH]c1=O)OCCO3,16.7
2,O=C(NCCSCc1c(F)cccc1Cl)Nc1ccccc1,10.6
3,Fc1cccc(NC(=S)N2CCCC2)c1,6.95
4,COc1ccc(CC(NC(C)=O)C(=O)NC2CCN(S(=O)(=O)c3ccccc3)CC2)c(OC)c1 (stereo not drawn),14
5,O=C(c1ccc(N2C(=O)C3CCCCC3C2=O)cc1)N1CCCCC1 (stereo not drawn),2.72
6,O=C(CCCC(=O)N(CC(=O)NC1CCCCC1)Cc1ccc2c(c1)OCO2)Nc1ccccn1,-9.09
7,COc1cc(C)ccc1OCC(=O)Nc1ccc2c(c1)OCO2,13.1
8,O=C(CSc1nc2ncc(Br)cc2[nH]1)Nc1ccccc1-c1ccccc1,23.4
9,Cc1nnc(N/N=C/c2cccc(C(F)(F)F)c2)n1N,10.6
10,CCCCOc1ccc(CNC(=O)NS(=O)(=O)c2ccc(OCC)cc2)cc1,13.4
11,CC(NC(=O)/C=C/c1ccccc1[N+](=O)[O-])C1CC2CCC1C2 (stereo not drawn),11.1
12,CCOC(=O)C1C(c2ccc(C(=O)O)cc2)NC(=O)NC1(O)C(F)(F)F (stereo not drawn),6.09
13,COc1ccc(O)c(C(=O)c2cc(C#N)c(=O)n(CC3CCCO3)c2)c1 (stereo not drawn),4.67
14,CC(C)Cn1c(N)c(C(=O)COC(=O)c2ccccc2F)c(=O)n(C)c1=O,6
15,CC(C)c1ccc(NC(=O)Cn2c(=O)oc3ccccc32)cc1,16.6
16,CN(C(=O)COC(=O)c1cc(NS(=O)(=O)c2cc([N+](=O)[O-])ccc2Cl)ccc1O)C1CCCCC1,-1.26
17,COc1ccc(C(=O)N/C(=C\c2ccco2)C(=O)NCCN2CCOCC2)cc1,14.8
18,COC(=O)c1ccc(C2=NOC(C)(c3nnc(Cc4ccccc4)o3)C2)cc1 (stereo not drawn),13.6
19,O=C(Nc1cc2c3c(c1)CC(=O)N3CCC2)c1ccccc1F,13
20,Cc1ccc(C)c(-n2c3nc(=O)[nH]c(=O)c-3cc3cc([N+](=O)[O-])ccc32)c1,12
21,CC(NC(=O)OC(C)(C)C)C(=O)Oc1cc2oc(=O)cc(-c3ccccc3)c2cc1Cl (stereo not drawn),13.2
22,Cc1ccc(Sc2nc(C)cc(C)c2S(C)(=O)=O)cc1,8.74
23,Nc1ccc(C(=O)OCC(=O)NC2CCCc3ccccc32)cc1[N+](=O)[O-] (stereo not drawn),14.8
24,CN1CCN(S(=O)(=O)c2ccc3c(c2)CC(=O)N3C)CC1,5.59
